Among all 310,000 compounds or so, about 14,000 (4.5%) showed an effect of 50% or more. Effects have a minus sign here. The list shows a part of the results.
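Also: peak tail current of the secondary pulse compared with the same well before compound.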

The target in this assay is human ether-à-go-go-related gene (hERG) potassium channel (human, UniProt Q12809). In words: primary screen, population patch clamp on CHO cells stably expressing hERG.
Sequence of human ether-à-go-go-related gene (hERG) potassium channel (Q12809 whole entry, looked up): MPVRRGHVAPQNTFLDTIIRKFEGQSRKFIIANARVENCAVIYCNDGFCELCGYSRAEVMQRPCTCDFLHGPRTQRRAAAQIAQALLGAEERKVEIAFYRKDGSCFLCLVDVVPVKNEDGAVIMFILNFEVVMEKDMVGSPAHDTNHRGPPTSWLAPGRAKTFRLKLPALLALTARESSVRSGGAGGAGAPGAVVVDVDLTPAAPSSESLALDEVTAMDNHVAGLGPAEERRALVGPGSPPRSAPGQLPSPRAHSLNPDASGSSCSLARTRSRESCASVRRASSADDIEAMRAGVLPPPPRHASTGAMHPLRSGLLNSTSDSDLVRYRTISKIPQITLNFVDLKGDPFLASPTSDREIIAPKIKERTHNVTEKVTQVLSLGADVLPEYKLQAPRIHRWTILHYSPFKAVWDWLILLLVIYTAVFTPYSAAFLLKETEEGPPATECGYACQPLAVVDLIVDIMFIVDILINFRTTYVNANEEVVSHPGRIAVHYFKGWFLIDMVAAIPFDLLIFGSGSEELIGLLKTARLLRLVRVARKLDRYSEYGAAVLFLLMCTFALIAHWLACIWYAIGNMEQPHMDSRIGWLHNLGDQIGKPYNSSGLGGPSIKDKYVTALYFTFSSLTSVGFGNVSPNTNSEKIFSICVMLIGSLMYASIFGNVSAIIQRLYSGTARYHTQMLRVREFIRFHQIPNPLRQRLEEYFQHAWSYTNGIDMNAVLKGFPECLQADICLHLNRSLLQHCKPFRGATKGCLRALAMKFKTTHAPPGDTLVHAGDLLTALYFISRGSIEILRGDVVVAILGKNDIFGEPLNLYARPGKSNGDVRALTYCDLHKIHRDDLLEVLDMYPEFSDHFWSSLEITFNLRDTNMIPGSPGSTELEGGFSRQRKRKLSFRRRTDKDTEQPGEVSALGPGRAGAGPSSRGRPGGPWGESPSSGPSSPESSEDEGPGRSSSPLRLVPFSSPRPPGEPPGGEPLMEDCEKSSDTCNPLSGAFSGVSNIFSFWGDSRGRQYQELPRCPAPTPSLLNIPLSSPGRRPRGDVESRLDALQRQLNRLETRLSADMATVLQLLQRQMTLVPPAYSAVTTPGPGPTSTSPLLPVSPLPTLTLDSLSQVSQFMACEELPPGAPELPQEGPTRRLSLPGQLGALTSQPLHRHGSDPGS
As to `Cc1cc(C)c2cc(CN(Cc3cccs3)Cc3nnnn3CC3CCCO3)c(=O)[nH]c2c1` (stereo not drawn), the “hERG current change (%, negative = inhibition) at 10uM” value is listed as -20.3%. The same measure for `CC1=Nc2ccc(C)c3nc(C)cc(c23)N1c1ccc(C)cc1`: -30.1%; for `Cc1cc(NC(=O)CCCC(=O)N(CC(=O)NC2CCCCC2)c2ccccc2)no1`: 4.16%; for `CC(C)(C)c1ccc(S(=O)(=O)NCCc2ccncc2)cc1`: -0.395%. The same measure for `CCCCC#Cc1ccc(C(=O)NNC(=O)Nc2ccccc2)o1`: 11.2%. Consider `CCCc1ccc2oc(C(=O)NCc3nnc(C)o3)c(C)c2c1`, for which the “hERG current change (%, negative = inhibition) at 10uM” value stood at 1.52%. The value for `COc1ccc(Cc2n[nH]c(=S)n2C)cc1Br` was 16.1%.

For the compound `CCOc1ccc(NC(=O)CN(C)C(=O)c2ccccc2SCc2c(C)noc2C)cc1OCC`, the “hERG current change (%, negative = inhibition) at 10uM” value is given as -30.4%.

Regarding `O=C(CNCc1ccco1)Nc1ccc(N2CCCCCC2)cc1.O=C(O)C(=O)O`, the “hERG current change (%, negative = inhibition) at 10uM” value is -4.13%. The same measure for `Cc1ccc(NC(=O)CCC(=O)N/N=C/C=C/c2ccccc2)cc1`: 7.71%. The value for `CCN(CC)C(=O)/C(=C\c1ccc2c(c1)OCO2)NC(=O)c1ccc(Br)cc1` was -63.5%; that for `c1ccc(-c2c3ccccc3nc3[nH]c4ccccc4c23)cc1` was 18.4%. Regarding `COc1ccc(C2CC3CC(c4ccccc4)N2O3)cc1` (stereo not drawn), the “hERG current change (%, negative = inhibition) at 10uM” value is on record as -5.41%. Regarding `O=c1oc2ccccc2cc1-c1nc2ccccc2[nH]1`, the “hERG current change (%, negative = inhibition) at 10uM” value is 13.4%.

As to `CNC(C(=O)c1ccccc1)C(OC(C)C)c1ccc(Cl)cc1.[O-][Cl+3]([O-])([O-])O` (stereo not drawn), the “hERG current change (%, negative = inhibition) at 10uM” value is -4.09%. Take `COc1ccccc1NC(=O)CSc1c2c(nc3ccccc13)CCC2`: the “hERG current change (%, negative = inhibition) at 10uM” value is listed as -26.3%. The same measure for `Cc1ccsc1-c1nc(-c2ccccc2)c(-c2ccccc2)[nH]1`: 6.68%; for `CCCNC(=S)N1CCC(NC(=O)c2ccc(C)cc2)CC1`: -4.54%. For the compound `CC1CCN(c2ccc(C(=O)NCCc3ccccc3)cn2)CC1`, the “hERG current change (%, negative = inhibition) at 10uM” value is -44.5%. The same measure for `CC1=C(CC(=O)c2ccc(Cl)cc2)C(=O)c2ccccc2C1=O`: 6.4%. The value for `O=C(/C=N/O)NCCCN1CCOCC1` was 26.4%.

`COc1ccc(C(C)=O)cc1CSc1nnc(-c2ccc(Cl)cc2)n1-c1ccccc1`: the “hERG current change (%, negative = inhibition) at 10uM” value is reported as -47.5%. The value for `O=c1[nH][nH]c2cc(=O)n(-c3ccc(Cl)cc3)nc12` was 14.3%; that for `COc1ccc(N(CC(=O)NCC2CCCO2)C(=O)CCC(=O)Nc2nccs2)c(OC)c1` (stereo not drawn) was 1.59%.

On to `O=[N+]([O-])c1ccc2nonc2c1Nc1cccc(F)c1`, for which the “hERG current change (%, negative = inhibition) at 10uM” value is 13.9%. The same measure for `OCCCNc1cc(-c2ccnc(Nc3cccc(Cl)c3)n2)ccn1`: -30.3%; for `Cc1oc2c(c(C)cc3oc(=O)c(CC(=O)NCCC(=O)O)c(C)c32)c1C`: 13.8%. Turning to `CCN(CC)C(=O)C(=O)c1cn(CC(=O)NCC2CCCO2)c2ccccc12` (stereo not drawn), the “hERG current change (%, negative = inhibition) at 10uM” value came out at 9.4%. Turning to `O=C(COC(=O)CSc1ccc(F)cc1)NCCCc1ccccc1`, the “hERG current change (%, negative = inhibition) at 10uM” value worked out at 7.08%.

In the case of `Cc1ccc(NC(=O)c2c(C)nn(-c3ccccc3)c2Cl)cc1`, the “hERG current change (%, negative = inhibition) at 10uM” value is -10.8%. The same measure for `O=C(c1ccc2snnc2c1)N1CCCC1`: 6.69%; for `CCC(=NCCO)c1c(O)n(-c2ccccc2)c(=O)[nH]c1=O`: 15.5%. `COc1ccc(C2(C(=O)NCCc3ccccc3)CCCC2)cc1`: the “hERG current change (%, negative = inhibition) at 10uM” value worked out at 1.53%. The value for `CCC(=O)Nc1ccc(N2CCN(Cc3ccccc3F)CC2)cc1` was -22.5%. For `CC(C)=C1C2CC2C2C(C(=O)O)C12` (stereo not drawn), the “hERG current change (%, negative = inhibition) at 10uM” value came to 13.9%. The value for `O=C1COc2ccc(C(=O)COC(=O)c3ccc4ccccc4n3)cc2N1` was 2.53%; that for `Cc1ccc(C)c(NC(=O)CN(C)C(=O)c2cc3c(s2)CCCCC3)c1` was 1.59%. The same measure for `O=C(Nc1nc(=O)n(C(=O)c2cccc(C(F)(F)F)c2)s1)c1ccccc1`: 0.0736%. As for `COC(=O)CC1COc2ccccc2N1C(=O)c1ccc(Br)cc1` (stereo not drawn), the “hERG current change (%, negative = inhibition) at 10uM” value is listed as -2.98%.

Consider `COc1ccc(C(=O)Nc2ccncc2)cc1S(=O)(=O)N1CCOCC1`, for which the “hERG current change (%, negative = inhibition) at 10uM” value was determined as 4.42%. Regarding `OC(C#CCN1CCCC1)(c1ccccc1)c1ccccc1`, the “hERG current change (%, negative = inhibition) at 10uM” value is recorded as -28.8%. In the case of `COc1ccc2oc(=Nc3ccc(C(=O)O)cc3)c(C(=O)NCc3ccco3)cc2c1`, the “hERG current change (%, negative = inhibition) at 10uM” value was -36.4%. The same measure for `O=C1S/C(=C\c2ccc(O)c([N+](=O)[O-])c2)C(=O)N1c1ccccc1Cl`: 7.26%. For `Cc1ccc(S(=O)(=O)NC(=O)NCCCN2CCOCC2)cc1`, the “hERG current change (%, negative = inhibition) at 10uM” value is 20.1%. Take `CC1(C)OC(=O)C(=CNc2ccc(F)cc2)C(=O)O1`: the “hERG current change (%, negative = inhibition) at 10uM” value is given as -12%.
